Data: patent US11542275B2, “Substituted imidazolidin-2-one derivatives as PRMT5 inhibitors” (Aurigene Discovery Technologies Limited, priority 2018, dated 2023)

System: Z138 cells
Test: Z138 cell proliferation assay (XTT)
Format: cell-based
Conditions: Homo sapiens, Z-138, 168 h, 7 day treatment, 9-point dose response starting with 10 μM, XTT read at 465 nm
Protocol: Z138 cells were seeded in a 96-well round-bottom plate and treated with varying concentration of compound. The final DMSO concentration was maintained at 0.05%. The selected compounds of present invention were screened in a 9-point dose response format starting with 10 μM and 1/3rd serial dilution. On the 4th day, cells were spun down and media was replaced while maintaining the initial compound concentration in each well. At the end of the 7th day, cells were spun down and media was aspirated. 50 µL of XTT containing media was added to the wells. The plates were read using the M3 spectrophotometer at 465 nm. GI50 values were calculated by fitting the dose response data to sigmoidal curve fitting equation using GraphPad Prism software V7.
The compounds were screened in the above mentioned assay procedures for determining IC50 and GI50 values in inhibiting PRMT5.

Structure (SMILES) | GI50 [nM]
N#Cc1ncc(-c2ccnc(CN3CCN(C[C@H](O)CN4CCc5ccccc5C4)C3=O)c2)cn1 [Compound 54, (R)-5-(2-((3-(3-(3,4-dihydroisoquinolin-2(1H)-yl)-2-hydroxypropyl)-2-oxoimidazolidin-1-yl)methyl)pyridin-4-yl)pyrimidine-2-carbonitrile] | > 300
CC1(C(=O)N2CCC(c3ccc(CN4CCN(C[C@H](O)CN5CCc6ccccc6C5)C4=O)nc3)CC2)COC1 [Compound 53, (R)-1-(3-(3,4-dihydroisoquinolin-2(1H)-yl)-2-hydroxypropyl)-3-((5-(1-(3-methyloxetane-3-carbonyl)piperidin-4-yl)pyridin-2-yl)methyl)imidazolidin-2-one] | < 100
CN(C)C(=O)C1CCN(c2ccc(CN3CCN(C[C@H](O)CN4CCc5ccccc5C4)C3=O)nc2)CC1 [Compound 97, (R)-1-(6-((3-(3-(3,4-dihydroisoquinolin-2(1H)-yl)-2-hydroxypropyl)-2-oxoimidazolidin-1-yl)methyl)pyridin-3-yl)-N,N-dimethylpiperidine-4-carboxamide] | < 100
COc1cc(-c2ccc(CN3CCN(C[C@H](O)CN4CCc5ccccc5C4)C3=O)cn2)ccn1 [Compound 58, (R)-1-(3-(3,4-dihydroisoquinolin-2(1H)-yl)-2-hydroxypropyl)-3-((2′-methoxy-[2,4′-bipyridin]-5-yl)methyl)imidazolidin-2-one] | < 100
O=C1N(Cc2ccc(C3CCN(Cc4nn[nH]n4)CC3)cn2)CCN1C[C@H](O)CN1CCc2ccccc2C1 [Compound 99, (R)-1-((5-(1-((2H-tetrazol-5-yl)methyl)piperidin-4-yl)pyridin-2-yl)methyl)-3-(3-(3,4-dihydroisoquinolin-2(1H)-yl)-2-hydroxypropyl)imidazolidin-2-one] | > 300
CC(C)Oc1cc(-c2ccc(CN3CCN(C[C@H](O)CN4CCc5ccccc5C4)C3=O)cn2)ccn1 [Compound 67, (R)-1-(3-(3,4-dihydroisoquinolin-2(1H)-yl)-2-hydroxypropyl)-3-((2′-isopropoxy-[2,4′-bipyridin]-5-yl)methyl)imidazolidin-2-one] | < 100
CC(=O)N1CC(c2ccc(CN3CCN(C[C@H](O)CN4CCc5ccccc5C4)C3=O)nc2)C1 [Compound 79, (R)-1-((5-(1-acetylazetidin-3-yl)pyridin-2-yl)methyl)-3-(3-(3,4-dihydroisoquinolin-2(1H)-yl)-2-hydroxypropyl)imidazolidin-2-one] | < 100
CN1CCC(c2ccc(CN3CCN(C[C@H](O)CN4CCc5ccccc5C4)C3=O)nc2)CC1 [Compound 47, (R)-1-(3-(3,4-dihydroisoquinolin-2(1H)-yl)-2-hydroxypropyl)-3-((5-(1-methylpiperidin-4-yl)pyridin-2-yl)methyl)imidazolidin-2-one] | 100 to 300
O=C(c1ncc(-c2ccc(CN3CCN(C[C@H](O)CN4CCc5ccccc5C4)C3=O)nc2)cn1)N1CCCC1 [Compound 102, (R)-1-(3-(3,4-dihydroisoquinolin-2(1H)-yl)-2-hydroxypropyl)-3-((5-(2-(pyrrolidine-1-carbonyl)pyrimidin-5-yl)pyridin-2-yl)methyl)imidazolidin-2-one] | < 100
COc1ccc(-c2ccc(CN3CCN(C[C@H](O)CN4CCc5ccccc5C4)C3=O)nc2)cn1 [Compound 62, (R)-1-(3-(3,4-dihydroisoquinolin-2(1H)-yl)-2-hydroxypropyl)-3-((6′-methoxy-[3,3′-bipyridin]-6-yl)methyl)imidazolidin-2-one] | < 100
O=C1N(Cc2ccc(-c3ccnc(O)c3)cn2)CCN1C[C@H](O)CN1CCc2ccccc2C1 [Compound 56, (R)-1-(3-(3,4-dihydroisoquinolin-2(1H)-yl)-2-hydroxypropyl)-3-((2′-hydroxy-[3,4′-bipyridin]-6-yl)methyl)imidazolidin-2-one] | < 100
CC(=O)N1C2CCC1CC(c1ccc(CN3CCN(C[C@H](O)CN4CCc5ccccc5C4)C3=O)cn1)C2 (stereo partly drawn) [Compound 73, 1-((6-(8-acetyl-8-azabicyclo[3.2.1]octan-3-yl)pyridin-3-yl)methyl)-3-((R)-3-(3,4-dihydroisoquinolin-2(1H)-yl)-2-hydroxypropyl)imidazolidin-2-one] | 100 to 300
O=C1N(Cc2ccc(N3C4CCC3COC4)cn2)CCN1CC(O)CNC1Cc2ccccc2C1 (stereo not drawn) [Compound 86, 1-((5-(3-oxa-8-azabicyclo[3.2.1]octan-8-yl)pyridin-2-yl)methyl)-3-(3-((2,3-dihydro-1H-inden-2-yl)amino)-2-hydroxypropyl)imidazolidin-2-one] | > 300
N#Cc1ncc(-c2cccc(CN3CCN(C[C@H](O)CN4CCc5ccccc5C4)C3=O)n2)cn1 [Compound 55, (R)-5-(6-((3-(3-(3,4-dihydroisoquinolin-2(1H)-yl)-2-hydroxypropyl)-2-oxoimidazolidin-1-yl)methyl)pyridin-2-yl)pyrimidine-2-carbonitrile] | 100 to 300
CC(=O)N1C2CCC1CC(c1ccc(CN3CCN(C[C@H](O)CN4CCc5ccccc5C4)C3=O)nc1)C2 (stereo partly drawn) [Compound 72, 1-((5-(8-acetyl-8-azabicyclo[3.2.1]octan-3-yl)pyridin-2-yl)methyl)-3-((R)-3-(3,4-dihydroisoquinolin-2(1H)-yl)-2-hydroxypropyl)imidazolidin-2-one] | < 100
CC(=O)N1CCN(c2ccc(CN3CCN(CC(O)CN4Cc5ccccc5C4)C3=O)nc2)CC1 (stereo not drawn) [Compound 84, 1-((5-(4-acetylpiperazin-1-yl)pyridin-2-yl)methyl)-3-(2-hydroxy-3-(isoindolin-2-yl)propyl)imidazolidin-2-one] | > 300
O=C1N(Cc2ccc(-n3ccccc3=O)cn2)CCN1C[C@H](O)CN1CCc2ccccc2C1 [Compound 101, (R)-6′-((3-(3-(3,4-dihydroisoquinolin-2(1H)-yl)-2-hydroxypropyl)-2-oxoimidazolidin-1-yl)methyl)-2H-[1,3′-bipyridin]-2-one] | 100 to 300
O=C1N(Cc2ccc(C3CCOCC3)cn2)CCN1C[C@H](O)CNC1Cc2ccccc2C1 [Compound 89, (R)-1-(3-((2,3-dihydro-1H-inden-2-yl)amino)-2-hydroxypropyl)-3-((5-(tetrahydro-2H-pyran-4-yl)pyridin-2-yl)methyl)imidazolidin-2-one] | 100 to 300
O=C1N(Cc2ccc(C3CCOCC3)nn2)CCN1C[C@H](O)CN1CCc2ccccc2C1 [Compound 51, (R)-1-(3-(3,4-dihydroisoquinolin-2(1H)-yl)-2-hydroxypropyl)-3-((6-(tetrahydro-2H-pyran-4-yl)pyridazin-3-yl)methyl)imidazolidin-2-one] | 100 to 300
CC1COCCC1c1ccc(CN2CCN(C[C@H](O)CN3CCc4ccccc4C3)C2=O)nc1 (stereo partly drawn) [Compound 68, 1-((R)-3-(3,4-dihydroisoquinolin-2(1H)-yl)-2-hydroxypropyl)-3-((5-(3-methyltetrahydro-2H-pyran-4-yl)pyridin-2-yl)methyl)imidazolidin-2-one] | < 100
O=C1N(Cc2ccc(C3CC4CCC(C3)O4)nc2)CCN1C[C@H](O)CN1CCc2ccccc2C1 (stereo partly drawn) [Compound 74, 1-((6-(8-oxabicyclo[3.2.1]octan-3-yl)pyridin-3-yl)methyl)-3-((R)-3-(3,4-dihydroisoquinolin-2(1H)-yl)-2-hydroxypropyl)imidazolidin-2-one] | < 100
